In PubChem BioAssay AID1745845 (National Center for Advancing Translational Sciences (NCATS), 2022):
The campaign covered roughly 360,000 compounds. About 2,600 (0.72%) were called active. The shares of active, inactive and inconclusive entries below differ from those in the screen. The call rests on the fitted dose curve; in most records, active means well fitted inhibition curve with a large enough effect; inconclusive means small, poorly fitted or top-dose-only effect; inactive means no such curve, though single readings can be large or run the other way. Potencies beside an inconclusive call are fits to weak or partial responses and may not hold up.

assay: Primary qHTS for Inhibitors of ATXN expression; settings: HEK-293 ATXN2-luciferase reporter, luminescence, 24 h; activity change, negative = inhibition: at 57 µM (top of the series); further: nearly all actives have a fitted effect of over 55% in size
In short: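 ATXN2-luciferase reporter cells (luciferase flanked by upstream and downstream ATXN2 gene portions) were treated 24 h at 37 °C with compounds at up to 57 uM. SteadyGlo luminescence gave expression; GF-AFC fluorescence gave viability.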
On the % scale 0 is the no-effect control and ±100 the full control effect; potency means the concentration at half of the fitted maximal effect; tags describe the fitted curve by direction and shape.

Potency, inactive:
COc1ccc(N2CCN(C(=O)CCc3c(C)nc4cc(-c5cccc(F)c5)nn4c3C)CC2)cc1
Cc1nc2ccccn2c1C(=O)/C=C/c1cccc([N+](=O)[O-])c1
Cc1ccc(C2(c3noc(CN4C[C@@H](C)O[C@@H](C)C4)n3)CCCC2)cc1
O=C(NCCNC1CCC(c2ccccc2)CC1)c1cccs1 (stereo not given)
O=C(CNCc1cccc(Cl)c1)N1CCc2ccccc2C1
Fc1ccccc1CNC(=S)NC1CCCCC1
Cc1cccc(N2CCN(C(=O)CCCn3ncn4c(cc5occc54)c3=O)CC2)c1C
Cc1ccc2ccc3cc(C(=O)Nc4ccc(C)c(F)c4)nc3c2[nH]1
COc1cccc(Oc2coc3cc(OC(=O)N4CCOCC4)ccc3c2=O)c1
COC(=O)c1cc(OC)c(OC)cc1NC(=S)N1CCN(c2ccccc2)CC1
Cc1c(C(=O)NC(Cc2ccccc2)c2nc3ccccc3[nH]2)cccc1[N+](=O)[O-] (stereo not given)
O=C(OCc1nnc(-c2ccccc2)o1)c1cccc(S(=O)(=O)N2CCOCC2)c1
C/C=C\C=C/C(=O)Nc1cccc(C2=NOC3(C2)C[C@@H](C(N)=O)N(C(=O)/C=C/C=C\C)C3)c1 (stereo not given in full)
Cc1oc(-c2ccc(Cl)cc2)nc1CN1CCCC(C(=O)NCCCN2CCOCC2)C1 (stereo not given)
Cc1csc(NC(=O)C2CCN(S(=O)(=O)c3ccccc3F)CC2)n1
COc1cccc(-c2nc3c(c(SCc4ccccc4Cl)n2)Cc2c(CO)cnc(C)c2O3)c1
O=C(Nc1ccc2oc(-c3ccccc3)nc2c1)c1ccc2c(c1)OCCO2
COC(=O)c1cccc(NC(=S)Nc2cccc(Cl)c2C)c1
O=C(Nc1ccc(N2CCCC2)c(Cl)c1)c1cccnc1
COc1ccc(Br)cc1CN(C)C(=O)c1ccccc1SCC(=O)N1CCCC1
COc1ccc(C2CC(=O)c3c([nH]c(C(=O)OC(C)C)c3C)C2)cc1OC (stereo not given)
O=C(NCC1CCCO1)c1ccc2c(c1)N(Cc1ccccc1)C(=O)CS2 (stereo not given)

Potency, inconclusive:
CC(=O)N1CCc2c(sc3c2c(=O)n(-c2ccccc2)c(=O)n3Cc2cccc(C(F)(F)F)c2)C1 28.2 µM [inhibitor, single point]
CC1=C([N+](=O)[O-])C(c2cccc(Br)c2)C2=C(N1)c1ccccc1C2=O (stereo not given) 14.1 µM [inhibitor, partial curve, poor fit]
CNC(=O)NC(=O)C(C)OC(=O)CCCSc1nc2ccccc2s1 (stereo not given) 25.1 µM [inhibitor, single point]
Cc1cc(O)cc(O)c1C(=O)Cc1cscn1 22.4 µM [inhibitor, partial curve, poor fit]
COc1ccc(CCNC(=O)Nc2ccc3c(c2)c(=O)n(C)n3Cc2ccc(Cl)cc2)cc1OC 28.2 µM [inhibitor, single point]
NC(N)=N/N=C/c1ccc(OCc2ccccc2)cc1 39.8 µM [inhibitor, single point]
CC(=O)c1c(C)[nH]c(C(=O)Nc2ccc(C)cn2)c1C 20 µM [inhibitor, single point]
CN(CCc1ccccc1)c1cc2c(c3c1ccn3C)C1CCC2O1 (stereo not given) 22.4 µM [inhibitor, partial curve]
O=S(=O)(Nc1ccc(O)c2ccccc12)c1cccs1 26.7 µM [inhibitor, single point]
CCc1ccc(C(=O)c2cn(CC(=O)Nc3cccc(C)c3C)c3nc(C)ccc3c2=O)cc1 3.98 µM [inhibitor, single point]
Oc1ccc(CN2CCN(c3ccccc3)CC2)c2cccnc12 39.8 µM [inhibitor, single point]
Cc1ccc(Cl)cc1-n1ncc2c(NCCC3=CCCCC3)ncnc21 39.8 µM [inhibitor, single point]
COc1ccc(Cn2c(C)nc3c(c2=O)c2nc4ccccc4nc2n3Cc2ccco2)cc1 31.6 µM [inhibitor, partial curve, poor fit]
COc1ccc(C(=O)NN)cc1COc1ccc(Br)cc1 31.6 µM [inhibitor, single point]
Cc1ccccc1OCC(O)CN1CCCCC1 (stereo not given) 0.238 µM [inhibitor, partial curve]
CNC(=O)c1c(F)cccc1Nc1nc(Nc2cc3c(cc2OC)CCN3C(=O)CN(C)C)nc2[nH]ccc12 7.69 µM [inhibitor, partial curve, poor fit]
Cc1cc(O)cc(O)c1C=NCc1ccco1 22.4 µM [inhibitor, partial curve, poor fit]
Cc1ncc(CN2CCCC(C(=O)Nc3ccc(-c4cccc(F)c4)cc3)C2)cn1 (stereo not given) 14.1 µM [inhibitor, partial curve]
COc1cc([C@@H]2c3cc4c(cc3[C@@H](O)[C@H]3COC(=O)[C@H]23)OCO4)cc(OC)c1O[Si](C)(C)C(C)(C)C 39.8 µM [inhibitor, single point]
c1ccc(COc2cccc(-c3cc4nc(NCCc5ccncc5)ccn4n3)c2)cc1 28.2 µM [inhibitor, single point]
Cc1ccc(Cl)c(OCC(=O)NCC(c2cccs2)N2CCOCC2)c1 (stereo not given) 12.6 µM [inhibitor, partial curve]
CCCCn1nc(C(=O)NCC(c2cccs2)N2CCOCC2)c2ccccc2c1=O (stereo not given) 11.2 µM [inhibitor, partial curve, poor fit]
CCCCN(CC)CCNC(=O)c1[nH]c(C)c(C(C)=O)c1C 35.5 µM [inhibitor, partial curve, poor fit]
COc1ccc2c(Sc3ccccc3)c(C(=O)N3CCC(C)CC3)[nH]c2c1 39.8 µM [inhibitor, single point]
Cc1ccc(C(=O)N2CCN=C2SCc2ccc([N+](=O)[O-])cc2)cc1 10 µM [inhibitor, partial curve, poor fit]
Nc1c(C(=O)NCc2ccccc2)sc2nc(N3CCOCC3)c3c(c12)CCCC3 14.1 µM [inhibitor, partial curve, poor fit]
CC(C)C(=O)NC(c1cccs1)c1cc([N+](=O)[O-])c2cccnc2c1O (stereo not given) 31.6 µM [inhibitor, single point]
CCOc1cc(/C=C/c2cc(C(F)(F)F)[nH]c(=O)n2)ccc1O 39.8 µM [inhibitor, single point]
O=C(Nc1ccccc1)c1ccccc1NS(=O)(=O)c1ccc(Cl)s1 22.4 µM [inhibitor, single point]
Oc1c(Cl)cc(Cl)cc1/C=N/Nc1ncc(Br)cn1 3.16 µM [inhibitor, full curve]
Clc1ccc(OCc2nc(-c3ccccn3)n[nH]2)cc1 39.8 µM [inhibitor, partial curve, poor fit]
O=C(NCCCN1CCCCC1)c1ccc2c(c1)sc1nc(-c3ccc(F)cc3)cn12 8.91 µM [inhibitor, single point]
OC(COc1ccc2ccccc2c1Br)Cn1cnc(-c2ccccc2)c1 (stereo not given) 35.5 µM [inhibitor, partial curve, poor fit]
O=C(Oc1ccc(-c2nc(-c3ccccn3)no2)cc1)c1ccccc1 39.8 µM [inhibitor, single point]
CC(C)(C)OC(=O)N1CCCC(C(=O)Nc2cccc(C(=O)NCCCc3ccccc3)c2)C1 (stereo not given) 20 µM [inhibitor, partial curve, poor fit]
O=C(CN(c1cccc(C(F)(F)F)c1)S(=O)(=O)c1ccccc1)Nc1cccc(Cl)c1 39.8 µM [inhibitor, single point]
CCCN1C(=O)/C(=C/c2c(N3CCNC(=O)C3CC(=O)OCC)nc3c(C)cccn3c2=O)SC1=S (stereo not given) 33.6 µM [inhibitor, partial curve, poor fit]
COc1ccc(/C=N/NC(=O)c2ccccc2)cc1OS(=O)(=O)c1ccccc1 37.7 µM [inhibitor, single point]
Cc1ccc(NC(=O)CNc2cccc(Br)c2)cc1S(=O)(=O)N1CCOCC1 28.2 µM [inhibitor, single point]

Potency, active:
Cc1cccc(Nc2nc(NCc3ccco3)c3ccccc3n2)c1 25.1 µM
C[n+]1c(-c2ccccc2)cc2c(=Cc3ccccc3)c3ccccc3n21 9.47 µM
O=c1ccc2ccccc2c2ccccc12 5.01 µM
Cc1cccc(Nc2nc(N)nc(CCl)n2)c1C 1 µM
Cc1cccc2cc(C#N)c(SCCN3CCCCC3)nc12 25.1 µM
CCc1ccc(-c2cn3nc(C)c(C)nc3n2)cc1 5.01 µM
CCOc1ccc2nc(NC(=O)c3ccccn3)sc2c1 25.1 µM

Activity change, negative = inhibition, inactive:
COC(=O)N/N=C\c1c(C)[nH]n(-c2ccccc2)c1=O -28.6% [at 11.3 µM]

Activity change, negative = inhibition, inconclusive:
C=CCn1c(SCC(=O)Nc2ccc(F)cc2)nc2ccccc2c1=O -49.1% [inhibitor]
